Patent US20250122296A1 (BIOTHEUS, published 2025)

Target: T1, human 4-1BB (human, UniProt Q07011 24-255)
T1 construct: whole, on cells; also called h4-1BB; CD137
Assay: flow cytometry on CHO-h4-1BB cells, goat anti-human IgG-Fc (PE) detection, MFI
Experimental: By using the PLVX vector (synthesized by Qingke) of human 4-1BB cDNA which was cloned to the multiple cloning site (MCS) by transfection, CHO cells overexpressing human 4-1 BB were generated and named as CHO-h4-1BB cells. The expanded cultured CHO-h4-1BB cells was adjusted to have a cell density of 2×10^6 cells/ml, added to a 96-well flow plate, 100 μl/well, and centrifuged for later use. The bispecific antibody was diluted with PBS, and the diluted sample in 100 μl/well was added to the 96-well flow plate with cells, incubated at 4° C. for 60 min, and washed twice with PBS. Goat anti-human IgG-Fc (PE) (Abcam, ab98596) diluted 100 times with PBS was added, 100 μl/well, incubated at 4° C. for 30 min, and washed twice with PBS. The cells resuspended with PBS was added, 100 μl/well, and detected on a CytoFlex (Beckman) flow cytometer, and the corresponding MFI was calculated. The bispecific antibody of the present invention had binding activity to CHO-h4-1BB cells.

T1 sequence (Q07011 24-255): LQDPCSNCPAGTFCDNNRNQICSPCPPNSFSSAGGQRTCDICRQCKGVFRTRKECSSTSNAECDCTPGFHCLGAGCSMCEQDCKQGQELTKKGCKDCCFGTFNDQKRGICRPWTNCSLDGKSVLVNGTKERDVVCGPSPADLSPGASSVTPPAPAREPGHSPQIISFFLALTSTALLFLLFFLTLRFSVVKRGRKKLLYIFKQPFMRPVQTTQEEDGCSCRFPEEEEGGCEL

- binding result: binds
B1: anti-Claudin 18.2×4-1BB bispecific antibody (Claudin 18.2×4-1BB biAb) (bispecific antibody, human IgG1, kappa)
heavy: QVQLVQSGAEVKKPGASVKVSCKASGYTFTSYYMHWVRQAPGQGLEWMGTIYPGNGDTSYNQKFQGRVTMTRDKSTSTVYMELSSLRSEDTAVYFCARGGYYGNSLDYWGQGTLVTVSSASTKGPSVFPLAPSSKSTSGGTAALGCLVKDYFPEPVTVSWNSGALTSGVHTFPAVLQSSGLYSLSSVVTVPSSSLGTQTYICNVNHKPSNTKVDKKV[… human IgG1 Fc with changes …]GGGGSGGGGSGGGGSGGGGS[… about 120 residues …]
light: DIVMTQSPDSLAVSLGERATINCKSSQSVLSSGNQKNYLAWYQQKPGQPPKLLIYWASTRESGVPDRFSGSGSGTDFTLTISSLQAEDVAVYYCQNAYYYPFTFGQGTKLEIKRTVAAPSVFIFPPSDEQLKSGTASVVCLLNNFYPREAKVQWKVDNALQSGNSQESVTEQDSKDSTYSLSSTLTLSKADYEKHKVYACEVTHQGLSSPVTKSFNRGEC
notes: Expressed in Expi-CHO cells and purified with protein A; also called the bispecific antibody of the present application
